Assay results taken from the supplement of paper PMC3334620.
Whole data set: some 33,000 sequences, median “E-score (-0.5 to 0.5)” near -0.012, cut for the highest 2% near 0.29. Some of the results follow.

What follows are sequences tested against T1, Ybr033w (UniProt P38073) (assay: PBM E-score (8-mer binding enrichment) (E-score (-0.5 to 0.5)); higher = stronger / more preferred TF binding; most listed sequences are background and not binding sites). Details: protein concentration: 200 nM; construct: GST-full length.
T1 sequence: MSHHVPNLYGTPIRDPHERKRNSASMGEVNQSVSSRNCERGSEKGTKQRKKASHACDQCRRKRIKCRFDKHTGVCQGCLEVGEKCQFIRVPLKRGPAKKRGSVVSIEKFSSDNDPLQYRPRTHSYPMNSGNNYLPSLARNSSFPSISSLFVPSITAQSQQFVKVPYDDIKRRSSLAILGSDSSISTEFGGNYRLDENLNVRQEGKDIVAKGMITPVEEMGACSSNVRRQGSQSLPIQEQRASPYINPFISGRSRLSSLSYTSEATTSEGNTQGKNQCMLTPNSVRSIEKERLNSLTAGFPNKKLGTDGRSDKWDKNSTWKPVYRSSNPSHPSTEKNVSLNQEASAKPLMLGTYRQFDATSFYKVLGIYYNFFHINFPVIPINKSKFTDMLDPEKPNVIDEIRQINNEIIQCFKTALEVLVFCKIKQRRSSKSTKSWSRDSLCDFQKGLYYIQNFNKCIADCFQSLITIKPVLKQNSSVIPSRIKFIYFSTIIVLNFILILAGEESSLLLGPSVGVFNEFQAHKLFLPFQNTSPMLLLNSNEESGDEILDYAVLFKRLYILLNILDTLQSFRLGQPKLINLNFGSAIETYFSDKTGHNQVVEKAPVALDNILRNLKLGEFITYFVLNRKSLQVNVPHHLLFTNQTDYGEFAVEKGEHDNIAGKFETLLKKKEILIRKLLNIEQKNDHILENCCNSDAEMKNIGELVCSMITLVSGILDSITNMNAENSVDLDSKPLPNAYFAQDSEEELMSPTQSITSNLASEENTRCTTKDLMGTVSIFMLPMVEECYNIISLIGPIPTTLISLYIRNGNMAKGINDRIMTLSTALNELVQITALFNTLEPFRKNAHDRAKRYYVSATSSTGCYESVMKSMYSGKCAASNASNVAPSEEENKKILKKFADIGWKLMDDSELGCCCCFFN
Procedure: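 Universal 'all 10-mer' protein binding microarrays (Agilent AMADID 015681) probed with GST-tagged S. cerevisiae TFs (full-length or DBD) made by in vitro transcription/translation (PURExpress), about 100-200 nM. Bound TF was detected with fluorescent anti-GST. Each ungapped 8-mer (which stands for itself and its reverse complement) is scored by the PBM enrichment score (E-score), a modified Wilcoxon-Mann-Whitney statistic from -0.5 to +0.5, computed with the Universal PBM Analysis Suite. Scale: above 0.35 generally sequence-specific binding.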

In order of rising “PBM E-score” value:
1. AGCCCCCG  -0.467
2. GAGGGGCA  -0.347
3. CTGGGGCA  -0.337
4. ATGCTGAG  -0.308
5. GCAGCGAC  -0.299
6. CCCTTCTA  -0.292
7. ATCGTTGC  -0.281
8. CAACGCAG  -0.243
9. GGGGGGAA  -0.239
10. AGAACCCC  -0.237
11. CACCTGCA  -0.21
12. CCACCTCG  -0.205
13. GCTATCCC  -0.201
14. ACAGACGC  -0.198
15. ATCACGAG  -0.187
16. AACCGGCC  -0.18
17. AGCCGCCT  -0.18
18. CTAAGCGA  -0.179
19. GGAAGGTA  -0.174
20. CCGCCTGA  -0.172
21. GGCACAGA  -0.163
22. CCGAAAGG  -0.16
23. GGGATTCA  -0.16
24. CCTGTTCG  -0.157
25. AGGACCAG  -0.155
26. ACACACGG  -0.154
27. GGGCGCCC  -0.148
28. CGCGGACG  -0.141
29. CAATGAGG  -0.14
30. ACTGGTCT  -0.135
31. CGGGACCG  -0.124
32. TGTATGAA  -0.124
33. AGCGTAAG  -0.107
34. CACGTCTC  -0.106
35. CGATAGCC  -0.103
36. CGCCAACG  -0.0928
37. AACCGACC  -0.0894
38. AATAAGCC  -0.0887
39. CTGTATGC  -0.0853
40. GACGCTCC  -0.0801
41. CGTCGGAG  -0.0801
42. CTCGTATA  -0.0786
43. ACTGCCTA  -0.0707
44. ACCCTTTC  -0.0654
45. ACTGGCGC  -0.0583
46. GCGCACCC  -0.0579
47. GCGAGAAA  -0.0549
48. AGTGCTAT  -0.0398
49. CACGACGG  -0.0326
50. CATGCTAA  -0.0297
51. GTAGCCGA  -0.0276
52. GCCTCGTA  -0.0209
53. AAGGCGCA  -0.0162
54. GGTTGCCA  -0.0111
55. AGCGATGA  -0.00395
56. GAAAGATC  -0.00374
57. CTGGTAAA  0.00474
58. ACTCTGAT  0.0103
59. GTGACTGA  0.0134
60. GAACGTGA  0.0155
61. CCAATGCA  0.0225
62. CAGCCTAG  0.0256
63. ACATCCAG  0.0405
64. ACGCTTTG  0.0578
65. CAGGTTTA  0.0674
66. TAAGACGA  0.0773
67. GGACGGAA  0.0838
68. GAGTAACC  0.0865
69. AGGTGAAT  0.0888
70. AGAGAAAC  0.0905
71. CAATAGGC  0.0941
72. AAGCAAAT  0.0946
73. ATGAGCAT  0.0956
74. GCCTGAAA  0.102
75. GAATAACC  0.113
76. ATAAACCG  0.115
77. GTAAACGA  0.115
78. CGCAGTTA  0.119
79. ATGAGAAA  0.127
80. TAACGTCA  0.132
81. GAATCACC  0.136
82. ACAAGATA  0.153
83. ATTGAACG  0.159
84. AACTTCAT  0.205
85. CTAATGCA  0.252
86. AAAAGTAA  0.314
